Here are results for 3 molecules from patent publication US11771715B2 (Orna Therapeutics, Inc., priority 2019, dated 2023).

The labels stand for the following.
B1: Halastavi arva (1 × mut) (nucleic acid)
chain: CTTGATTCTAACCTTGCCGTATGGTGCCCTAACGGGTTCATTTAATCATGCGATGAGGGTTGCTATACCGCATCCATTCTAAGGCGATTCAATGCTTCATTTAGGAATTTTGTTGACGATTAAAAGGTACCCCCACAAAAACAAAACCAATCTTACTTGATTTTCGTTTTAACTGACCACTGCGATCCCAAATTTTCGCCTTCTTATCAAAGTATGTTGTGTTCTTTGGGTGTACAACCTGAGAACTTGTCTACAACTACATATTACTCGAGGAAGAAATTCGGTTTAAGCCGTGCCTTCTCACGTTTAGTATATCTATCTGGACACACCTTCTTCATCTTCTAATCCCCATCTAGTCTCCTGATCAGAGACGTCGTTATTAACAAATAACCCCCCTTGTTAATAAGAGACAAAGTACAATCAAGCTAAGTTCTCTTGGAGTTCCTGTAGGAACTTAGCCATTGTGATAGAGTCATAAGTCTATGTGCATAGACAGCTCTAGCTCACCATTTCCTTCCCAACCCATCTTTTCATCAGCTTAACTCTATGAATCCGATGCAAAAACCATTCTAACATCTTATGGTGCTTTCCAAGCCAAATGAGAGCTCACTCTTTTGAGCCGCTATTTAATGGACAATAAACGTTTTATAGTGTACATCATATTGTAAAAACAAA
modifications: lipid formulation
B2: Yanchengosbecks grenadier anchovy picornavirus (nucleic acid)
DNA: CCTTAGGGTCTGGAATGCGTCCTTTCTGGGCACTTCCACAATCCTAAGGTAATTTTCAACGCCAGCGATGGAGCGATATCCAAAGAACCTTTATGTTTTAGTTCGTCTTGTATGTTTATAAAATATAAAATTGGGATTAGCAACCCACAAAAACATTTTTGTTATTCTCACCACATGAGAGGGTGGTTAAACCTCTTCGTAACCTATCTTGCTTGATTGGCTACTTGGGCTAGATTTAGGACAACCTCTTTAGCAAGCCTAAATTACTCCTCGTACTTGCACCTGGTAACAGGCGTACCTGGAGGTTACGGTGGCGCTAACTTGGACTTCTCGTTAATTCGTGCAAGTTTAAATGATGCCTATTTTGAATACAAGAAAGTATGATAGTAACTTAGGGCGTGAAGTTCCGCTTAACATAAGGCAGTATAAGTACTAAGATAAGGTGTAAGACCTACCTTAATAACTGTTGTCTTTTCTCATGGTCTTTCCGTGGGAGCCCTTGCTAGGGGTAAAGTTAAGTATTCTCAAATAATTTTTCATTCAAACTCTTTCTCTCTGTTTT
B3: Falco virus A1 (nucleic acid)
chain: TAAAAGGGGACGCGGTGTGGCAGCTTTGGCTGTCATGCCGTGTTCTCCTTTTACCCCAAGGACTAGCCTTGGGGGTTTTCCAAATTCCTTTCCCTGTAGGCTTTACTTCTCTTTATCTATCTTTTCTGTAACTAAGTTTTGCCTATTCTAAAAATATTTTAGAATGTGTTTGGATGTAACTAAGTTTGTGCCTGCCCTAAAAATATTTTAGGGCTTGTTTGGATAACCTCGTCCCTTGTGTTCAGTGCCGCACAATTTGCTAGGCACTGTTCACTTCCTTTGTTTGTCCATTATGTATGCTAAGGTATGAATTCCATCATATGCTTAGCCTCTACATGCATAATCTTATTCCCTCCCTGGTGCAAACTACGCCCCCAACATATGTGAATCTTTTAAGCATATTCCTGACCCCACACATATATATGTGTTCTCGTGAATTCCCCCACCGTGAGGTGGTCACTTGGACGTGGTGTGTGTCACACAGCATATATATGATGCAGGATGTTGTTTTTAAGATAAGCATATGTCCTTAGTGCTTTGCATCATTTCCTCCACACCCCGTGAATGCGGCTAATCTTAACCCTGTTGGGTCCGTGGGTAAACCAACCCATTAACCACAGGACGGAACCGACTACTTTCGGGAGTGTGTGTTTCTTTTTCTTCTTTTGTCACT
modifications: lipid formulation

The test system of the series is HEK293 cells. The series is classed as cell-based, human. The note with it: luminescence from secreted Gluc in supernatant of HEK293 cells 24 hours after transfection of circular RNA; UTR truncated to 675 nt in front of Gluc coding region.
Molecule B1 displayed an Expression of 9.46E+04.
For B2, the Expression turned out to be 1.57E+06.
B3 showed an Expression of 1.48E+05.
